Data reported in paper PMC4336329 (PLoS ONE, 2015).
Among all 310,000 compounds or so, about 2,200 (0.71%) showed an effect of 50% or more. The effect is printed as a negative number. The list shows a part of the results.

Molecular target: human ether-à-go-go-related gene (hERG) potassium channel (human, UniProt Q12809)
Assay: primary screen, population patch clamp on CHO cells stably expressing hERG

Sequence of human ether-à-go-go-related gene (hERG) potassium channel (Q12809 whole entry, looked up): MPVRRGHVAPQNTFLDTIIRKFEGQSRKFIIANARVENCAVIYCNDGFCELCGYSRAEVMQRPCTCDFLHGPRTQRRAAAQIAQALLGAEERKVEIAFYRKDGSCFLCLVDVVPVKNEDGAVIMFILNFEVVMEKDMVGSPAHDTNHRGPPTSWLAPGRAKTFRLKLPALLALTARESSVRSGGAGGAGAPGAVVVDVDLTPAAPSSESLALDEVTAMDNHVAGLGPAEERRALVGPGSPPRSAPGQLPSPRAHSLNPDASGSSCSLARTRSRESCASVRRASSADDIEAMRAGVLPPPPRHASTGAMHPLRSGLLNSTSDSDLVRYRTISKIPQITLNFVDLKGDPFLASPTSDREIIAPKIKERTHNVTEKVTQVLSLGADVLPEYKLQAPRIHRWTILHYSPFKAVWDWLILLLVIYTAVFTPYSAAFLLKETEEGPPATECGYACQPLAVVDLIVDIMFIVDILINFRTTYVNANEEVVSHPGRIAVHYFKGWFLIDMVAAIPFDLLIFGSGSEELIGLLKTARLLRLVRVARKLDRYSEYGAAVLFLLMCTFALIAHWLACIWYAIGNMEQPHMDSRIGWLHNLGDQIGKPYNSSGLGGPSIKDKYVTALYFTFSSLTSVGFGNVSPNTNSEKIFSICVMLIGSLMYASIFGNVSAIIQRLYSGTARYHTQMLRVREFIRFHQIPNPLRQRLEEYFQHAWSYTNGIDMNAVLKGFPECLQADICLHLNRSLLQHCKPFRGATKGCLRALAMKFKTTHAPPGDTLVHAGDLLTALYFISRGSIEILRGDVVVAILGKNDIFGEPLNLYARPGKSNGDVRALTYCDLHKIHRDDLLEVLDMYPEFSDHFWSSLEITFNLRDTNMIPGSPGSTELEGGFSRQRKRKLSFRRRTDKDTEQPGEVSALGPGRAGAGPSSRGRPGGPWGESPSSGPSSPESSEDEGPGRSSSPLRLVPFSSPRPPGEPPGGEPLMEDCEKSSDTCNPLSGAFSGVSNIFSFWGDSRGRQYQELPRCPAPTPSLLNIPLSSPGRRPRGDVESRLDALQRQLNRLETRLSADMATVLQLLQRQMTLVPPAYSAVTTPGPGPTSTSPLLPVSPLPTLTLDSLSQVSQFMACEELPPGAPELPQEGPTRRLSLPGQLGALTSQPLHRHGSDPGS

Row | Compound | hERG current change (%, negative = inhibition) at 1uM [%]
1 | C1CCC(NC2CCCCC2)CC1 | 11.6
2 | Cc1ccc(OCC(=O)Nc2ccc(S(=O)(=O)Nc3ccccn3)cc2)c(C)c1 | 12.6
3 | CCOC(=O)c1c(CSc2nc(C)cc(C)c2C#N)n(C)c2cc(Br)c(OC(C)=O)cc12 | 1.1
4 | Cc1cccc(NC(=O)CCN2CCCCC2)c1.Cl | 5.95
5 | O=C(O)CS(=O)(=O)CC(=O)O | 12.5
6 | CCOC(=O)c1c(NC(C)=O)sc2c(O)c(Br)ccc12 | 8.63
7 | O=C(CSc1nccc(=O)[nH]1)N1CCN(c2ccccc2)CC1 | 16.1
8 | CCOC(=O)CSc1nnc(NC(=O)c2cc([N+](=O)[O-])cc([N+](=O)[O-])c2)s1 | -6.84
9 | Cc1ccc(C(=O)N/C(=C/c2ccco2)C(=O)Nc2cccc(C)c2)cc1 | 8.34
10 | O=C(N[C@@H](Cc1ccc(O)cc1)C(=O)O)c1ccc(C(F)(F)F)cc1 | 18.3
11 | C=C1CCN([C@H](C(=O)NCc2ccc(Cl)cc2)C(C)C)S(=O)(=O)c2ccccc21 | -3.97
12 | COc1cccc(C2CC(C(F)(F)F)n3ncc(C(=O)O)c3N2)c1 (centres unmarked) | 9.97
13 | Cc1ccnc(SC2CC(=O)N(c3ccc(C(C)C)cc3)C2=O)n1 (centres unmarked) | 14.7
14 | COc1cccc(C(=O)NCCNC(=O)c2ccco2)c1.O=C(O)C(=O)O | 15.7
15 | Cc1cc(C)nc(NS(=O)(=O)c2ccc(NC(=O)c3ccco3)cc2)n1 | -1.81
16 | COc1ccc(CCC(C)Nc2cccc(F)c2)cc1 (centres unmarked) | -7.4
17 | Cc1nnc(NC(=O)CSCc2c(C)noc2C)s1 | -1.84
18 | O=C(Cn1cc(C(F)(F)F)ccc1=O)N1CCN(S(=O)(=O)c2ccc(Cl)cc2)CC1 | 6.21
19 | Cl.NCCCC(=O)N1c2ccccc2Sc2ccccc21 | 0.002
20 | O=C(NNC(=O)c1sccc1-n1cccc1)c1ccc(F)cc1 | -19.6
21 | COc1ccc(N(C(=O)COc2ccccc2OC)S(=O)(=O)c2ccc(C)cc2)cc1 | 13.5
22 | COc1ccc(C(=O)NNc2ccccc2)cc1 | 4.65
23 | C[C@]12CCC(=O)C[C@@H]1CC[C@@H]1[C@@H]2CC[C@]2(C)[C@@H](C(=O)COC(=O)CCC(=O)O)CC[C@@H]12 | 15

Row | Compound | hERG current change (%, negative = inhibition) at 1uM [%]
24 | CCC1=C(OC(=O)c2ccccc2)C(C)(C)C(c2ccccc2)OC1=O (centres unmarked) | 7.81
25 | O=[N+]([O-])c1cc2c(cc1Br)CCN2 | 6.25
26 | O=C1c2oc3ccccc3c(=O)c2C(c2cccnc2)N1CCCN1CCOCC1 (centres unmarked) | 4.59
27 | Brc1ccccc1-c1ccccc1 | 15.3
28 | Cc1c(N2C(=O)c3ccc(F)cc3C2=O)c(=O)n(-c2ccccc2)n1C | 12.5
29 | CCOC(=O)CN1C(=O)N(CC(=O)OCC)C(c2ccccc2)(c2ccccc2)C1=O | 6.45
30 | CC1CC(C)CN(CC(=O)N2CCCc3c2c(=O)oc2ccc(OCc4ccccc4)cc32)C1 (centres unmarked) | 9.29
31 | Nc1c(S(=O)(=O)c2cccs2)c2nc3ccccc3nc2n1Cc1cccs1 | 5.38
32 | c1ccc(-n2nnnc2NCCc2c[nH]c3ccccc23)cc1 | 5.44
33 | CN(C)CCSc1nc(-c2ccccc2)nc2c1CCC2 | -16.4
34 | Cc1ccc(-c2csc(N(CCCN3CCOCC3)C(=O)c3ccco3)n2)cc1.Cl | -4.11
35 | CC(=O)Nc1ccc(S(=O)(=O)N2CCC(=O)Nc3ccccc32)cc1 | 20.6
36 | COC(=O)c1nn(-c2ccc3c(c2)OCO3)cc1O | 2.4
37 | Cc1ccc(NC(=O)C2CCCN(S(=O)(=O)c3cccnc3)C2)c(C)c1 (centres unmarked) | 17.1
38 | Cc1cc(C)c2c(=O)[nH]c(SCC(=O)N(C)C)nc2n1 | 5.22
39 | CCn1c(SCC(=O)c2ccc(NS(=O)(=O)c3ccccc3)cc2)nnc1-c1cccs1 | 0.643
40 | COc1cc(O)c(C(C)=O)cc1OC | 14.1
41 | O=C(CCCOc1ccccc1)NCC1CCCO1 (centres unmarked) | 11.9
42 | CCOC(=O)Cc1csc(SCC(=O)Nc2ccc3[nH]c(=O)[nH]c3c2)n1 | 0.0859
43 | CCN1CCN(Cc2ccc(NC(=O)c3ccc(C)c(NC(=O)c4cccc5[nH]ccc45)c3)cc2C(F)(F)F)CC1 | 14.5
44 | CC1(C)Cc2nc3sc4c(OCc5ccccc5)ncnc4c3cc2CO1 | 5.06
45 | Cc1c(C(=O)NC2CCCC2)oc2ccccc12 | -1.32
46 | CN(C)CCNC(=O)c1cc2c(=O)n(C)c3ccccc3c2n1C | 6.72

Row | Compound | hERG current change (%, negative = inhibition) at 1uM [%]
47 | O=C1N(CN2C(=O)C3(OCCO3)c3ccccc32)c2ccccc2C12OCCO2 | 13.5
48 | COc1cccc(C2=CC(=O)C[C@H](c3ccc(Cl)cc3)C2)c1 | 13.6
49 | O=C(CSc1nnc(Cc2ccccc2)o1)Nc1ccc2c(c1)OCO2 | 8.1
50 | CC(NC(=O)CSc1ccccc1C(=O)O)C1CC2CCC1C2 (centres unmarked) | 13.7
51 | CCCc1cc(NC(=O)CCl)n(-c2ccccc2)n1 | -0.734
52 | COc1c(N2CCNC(C)C2)c(F)cc2c(=O)c(C(=O)O)cn(C3CC3)c12 (centres unmarked) | 7.71
53 | COc1ccc(-c2nc(CS(=O)CC(=O)NC3CCC(C)CC3)c(C)o2)cc1OC (centres unmarked) | 4.54
54 | COc1ccc(N(C)C(=O)c2ccc3snnc3c2)cc1 | 12.1
55 | CCOC(=O)C1CCN(C(=O)C2(NC(=O)Nc3cccc(F)c3)CCCCC2)CC1 | 11.4
56 | CCCCN1C(=S)SC(C)(C)C1/[N+]([O-])=C/c1cccnc1 (centres unmarked) | 7.89
57 | Cc1ccccc1NC(=O)CSc1n[nH]c(-c2ccco2)n1 | 7.33
58 | CCOP(=O)(OCC)c1ccc(OP(=O)(c2cccc([N+](=O)[O-])c2)c2cccc([N+](=O)[O-])c2)cc1 | 13.2
59 | CCc1cc2c(SCC(=O)N(C)C3CCS(=O)(=O)C3)ncnc2s1 (centres unmarked) | -7.21
60 | CC/C(=N\NC(=O)C(N)=O)c1ccccc1O | 9.22
61 | Cc1ccc(C(CC(=O)N2CCNCC2)c2ccccc2)c(O)c1C (centres unmarked) | -11.5
62 | COc1ccc(CCNC(=O)CSC2=NS(=O)(=O)c3cc(Cl)ccc3N2)cc1OC | 15.5
63 | CC(=O)Nc1ccc(NC(=O)C(C)Sc2n[nH]c(=O)n2Cc2ccccc2)cc1 (centres unmarked) | 11.9
64 | Cc1ccc(-n2c(SCC(=O)N(C)C3CCS(=O)(=O)C3)nc3ccccc3c2=O)cc1 (centres unmarked) | 15.6
65 | Cc1ccc(C2C(C#N)=C(N)Oc3n[nH]c(-c4cccs4)c32)s1 (centres unmarked) | 18.8
66 | N#Cc1ccc(C(=O)N2CCN(S(=O)(=O)c3ccc(Cl)s3)CC2)cc1 | -11
67 | COC(=O)c1ccc(NC(=O)NC2CCCCC2)cc1 | 11.3
68 | COc1ccc(/C=C/C(=O)OCC(=O)Nc2cc(C(N)=O)cc(C(N)=O)c2)cc1 | 18.9
69 | CCOc1ccc(C2Sc3ccccc3NC3=C2C(=O)OC3)cc1 (centres unmarked) | -2.14

Row | Compound | hERG current change (%, negative = inhibition) at 1uM [%]
70 | Cc1ccc(C)c(NC(=O)C(CC(=O)O)C2CCCO2)c1 (centres unmarked) | 12.1
71 | O=C(Cn1ncc2c3ccccc3n(Cc3ccccc3F)c2c1=O)NCCCN1CCCC1=O | 7.16
72 | Cc1ccnc(NC(=O)c2cc3ccccc3o2)c1 | -6.74
73 | Cc1ccc(Cl)cc1NC(=O)COC(=O)c1ccc(CN2CCCC2=O)cc1 | 6.48
74 | O=C(O)CCCCCNC(=O)c1cccc(Br)c1 | 8.09
75 | CCOC(=O)Cn1c(=O)oc2cc(S(=O)(=O)NC(C)c3ccccc3)ccc21 (centres unmarked) | 0.367
76 | NC1=NC(=O)/C(=C/c2ccsc2)S1 | 3.53
77 | CCOc1ccc(CN(C)C(=O)c2ccc3c(c2)NC(=O)C(C)S3)cc1OC (centres unmarked) | -8.71
78 | CSc1ccccc1C(=O)Nc1ccccc1C(=O)NC(C)C | 11.2
79 | C/C(=N\NC(=S)NCCc1ccccc1)c1ccc(C)cc1 | 8.12
80 | CCn1nc(C)c(CN2CCN(Cc3ccc(OC)c(C)c3C)C(CCO)C2)c1C (centres unmarked) | -13.6
81 | CCOC(=O)CC(NCc1ccc(OC)c(OCC)c1)c1ccc(C)cc1.Cl (centres unmarked) | -4.4
82 | Cc1nnsc1-c1c(C(=O)O)c(C)nn1-c1ccc(OC(F)(F)F)cc1 | 14.5
83 | C(=N\N1CCN(c2ccccn2)CC1)/c1cccc2ccccc12 | 10.8
84 | O=C(CC1Nc2ccccc2NC1=O)NCc1cccnc1 (centres unmarked) | 6.8
85 | N#CCCn1cc(C(=O)NCc2ccccc2)c(-c2cccs2)n1 | 18.3
86 | COc1cc(C(=O)NCCNc2nc3cc(C)ccc3cc2C#N)cc(OC)c1OC | 9.24
87 | CN(C(=O)c1cccc(C#N)c1)c1nnc(C2CCCO2)s1 (centres unmarked) | 12.8
88 | CN(Cc1nc(Cc2ccccc2F)no1)[C@@H]1CS(=O)(=O)C[C@H]1O | -18.6
89 | Cc1ccc(S(=O)(=O)CCC(=O)Nc2nc(-c3ccccn3)cs2)cc1 | 18.1
